{"source": "paper doi:10.1101/2025.01.09.632086", "about": "(2025)", "binders": {"B1": {"name": "IscU WT (natural protein)", "chain": "MAYSEKVIDHYENPRNVGSFDNNDENVGSGMVGAPACGDVMKLQIKVNDEGIIEDARFKTYGCGSAIASSSLVTEWVKGKSLDEAQAIKNTDIAEELELPPVKIHCSILAEDAIKAAIADYKSKREAK"}}, "molecular_target": "T1, HscA (E. coli, UniProt P0A6Z1 1-616)", "T1 chain": "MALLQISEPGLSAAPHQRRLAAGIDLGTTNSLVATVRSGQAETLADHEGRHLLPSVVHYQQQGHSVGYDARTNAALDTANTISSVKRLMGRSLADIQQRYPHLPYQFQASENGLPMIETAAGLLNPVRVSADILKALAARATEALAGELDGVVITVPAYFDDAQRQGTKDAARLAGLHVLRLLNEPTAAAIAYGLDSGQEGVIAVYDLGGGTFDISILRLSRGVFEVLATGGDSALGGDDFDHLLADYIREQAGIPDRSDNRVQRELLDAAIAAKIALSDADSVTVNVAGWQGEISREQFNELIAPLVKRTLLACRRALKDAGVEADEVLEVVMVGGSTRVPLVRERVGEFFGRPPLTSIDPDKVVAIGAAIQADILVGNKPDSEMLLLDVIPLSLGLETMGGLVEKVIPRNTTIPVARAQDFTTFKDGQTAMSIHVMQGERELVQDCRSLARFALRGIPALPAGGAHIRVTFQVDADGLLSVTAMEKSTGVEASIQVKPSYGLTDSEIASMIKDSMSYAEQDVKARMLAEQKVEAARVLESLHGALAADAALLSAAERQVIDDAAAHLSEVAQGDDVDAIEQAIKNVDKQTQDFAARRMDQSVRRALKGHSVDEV", "test": "ITC", "data": [{"binder": "B1", "values": [{"measurement": "Kd", "result": 5.4, "unit": "µM"}]}]}
